The source gives no read counts; variants with many changes may rest on few reads.
B1: LINE1-mini (parent)
chain: GGCAGAGCUCAACACAGCGUGGCAAAGUGGCUGUGGCUAGACUGCC

Variants of: B1
Assay: self-cleavage, relative activity (ratio to wild type); higher = more cleavage; in vitro, sequencing; the parent is a self-cleaving ribozyme

| Variant | self-cleavage |
| --- | --- |
| GGCAGAGCUCAACACAGCGAGGCAAAGUGGCUGUGGUAUGACUGCU [U20A C37U U38A A39U C46U] | 0.02 |
| GGCAGAGCUCAACACAGCGAAGCAAAAUGGCUGUGGCUAGAUUGCC [U20A G21A G27A C42U] | 1.49 |
| GGCAGAGCUCAACACAGCGCGGCAACGUGGCUGUGGCUAGUCUGCC [U20C A26C A41U] | 0.18 |
| GGCAGAGCUCAACACAGCGAGGCAAAGUGACUGUGGCUAGAGUGCC [U20A G30A C42G] | 0.01 |
| GGCAGAGCUCAACACAGCGAGGCAAAGUGGCUGUGGCUAGACCGCA [U20A U43C C46A] | 0.02 |
| GGCAGAGCUCAACACAGCGAAGCAAAGUGGCUGUGGCUCGACUGCC [U20A G21A A39C] | 0.01 |
| GGCAGAGCUCAACACAGCGAGGCAAAGUGGCUGUGCCUAGACUUCC [U20A G36C G44U] | 0.05 |
| GGCAGAGCUCAACACAGCGAAGCAAAUUGGCUGUGGCUAGACUGCC [U20A G21A G27U] | 0.33 |
| GGCAGAGCUCAACACAGCGAGGCAAAGUGGCGGUGGCUCGACUGCC [U20A U32G A39C] | 0.09 |
| GGCAGAGCUCAACACAGCGAGGCAAAGGGGCUGUGGCUAGACUGUC [U20A U28G C45U] | 0.11 |
| GGCAGAGCUCAACACAGCGAGGCAAAGUGACUGUGGCUAUACUGCC [U20A G30A G40U] | 0.02 |
| GGCAGAGCUCAACACAGCGCGGCCAAGUCGCUGUGGCUAGACUGCC [U20C A24C G29C] | 2.53 |
| GGCAGAGCUCAACACAGCGCGGCAUAGUGGCUGUGGCUAGACUGAC [U20C A25U C45A] | 0.12 |
| GGCAGAGCUCAACACAGCGAAGCAAAGUGGCUGAGGCUAGACUGCC [U20A G21A U34A] | 0.14 |
| GGCAGAGCUCAACACAGCGAGGCAAAGUGGUCGUGGCUAGACUGCC [U20A C31U U32C] | 0.21 |
| GGCAGAGCUCAACACAGCGCGGCACAGCGGCUGUGGCUAGACUGCC [U20C A25C U28C] | 0.63 |
| GGCAGAGCUCAACACAGCGAGGCAAAGUGGCUGUGGCUAGACCUCC [U20A U43C G44U] | 0.11 |
| GGCAGAGCUCAACACAGCGAUGCAAAGUGGCUGUGGAUAGUCUGCC [U20A G21U C37A A41U] | 0.05 |
| GGCAGAGCUCAACACAGCGAGGCAAAGAGGCUGUGGCUAGAAGGCC [U20A U28A C42A U43G] | 0.06 |

| Variant | self-cleavage |
| --- | --- |
| GGCAGAGCUCAACACAGCGAGGCAAAGUGGCUGUGGAUAGAUGGCG [U20A C37A C42U U43G C46G] | 0 |
| GGCAGAGCUCAACACAGCGAGGCAAAGUGGCAGUGCCUAGAUUGCC [U20A U32A G36C C42U] | 0.08 |
| GGCAGAGCUCAACACAGCGAGGCAAAGUGGCUGUGACUAGCCUGCC [U20A G36A A41C] | 0.13 |
| GGCAGAGCUCAACACAGCGAGGCAAAGUGGCUAUGGGUAGACUGCC [U20A G33A C37G] | 0.03 |
| GGCAGAGCUCAACACAGCGAGGCAAAUUUGCUGUGGCUAGGCUGCC [U20A G27U G29U A41G] | 0.03 |
| GGCAGAGCUCAACACAGCGAAGCAAAGUGGCUGUCGCUAGACUGCC [U20A G21A G35C] | 0.25 |
| GGCAGAGCUCAACACAGCGAGGCAAAGUGGCUUUGGCUAUACUGCC [U20A G33U G40U] | 0.1 |
| GGCAGAGCUCAACACAGCGAGGCAAAUUGGCUGUGUCUAGACUGCC [U20A G27U G36U] | 0.03 |
| GGCAGAGCUCAACACAGCGAGGCAAAGUGGUUGUGGCUAGGCUGGC [U20A C31U A41G C45G] | 0.05 |
| GGCAGAGCUCAACACAGCGAGGCAAAACGGGUGUGGAUAGACUGCC [U20A G27A U28C C31G C37A] | 0.02 |
| GGCAGAGCUCAACACAGCGAGAACAAGUGAAUGUGGCUAGACUGCC [U20A G22A C23A A24C G30A C31A] | 0.27 |
| GGCAGAGCUCAACACAGCGAGGCAAAGUUGCUGUGGCUAGUCUGCC [U20A G29U A41U] | 0.08 |
| GGCAGAGCUCAACACAGCGACGCAAAGUGGCUGUUGCUAGACUGCC [U20A G21C G35U] | 0.02 |
| GGCAGAGCUCAACACAGCGAGGCAAAGUGCAUGUGGCUAGCCUGCA [U20A G30C C31A A41C C46A] | 0.08 |
| GGCAGAGCUCAACACAGCGAGACAAAGUGGCGGUGGCUAGACUGCC [U20A G22A U32G] | 0.06 |
| GGCAGAGCUCAACACAGCGAGGCAAAGGGGCUGUGGCUAGGCUGCC [U20A U28G A41G] | 0.05 |
| GGCAGAGCUCAACACAGCGAGGCAAAGUGGUUGUGGCUAGUCUGCC [U20A C31U A41U] | 0.13 |
| GGCAGAGCUCAACACAGCGAUGCAAAGUGGUUGUGGCUAGACUGCC [U20A G21U C31U] | 0.2 |
| GGCAGAGCUCAACACAGCGAGGCAAAGUGUCUGUGGUUAGACUGCC [U20A G30U C37U] | 0.04 |

| Variant | self-cleavage |
| --- | --- |
| GGCAGAGCUCAACACAGCGAGACAAAGUGGCUGUGGCUAGAGUGCC [U20A G22A C42G] | 0.04 |
| GGCAGAGCUCAACACAGCGAGGCAAAGUGGCUGUGUCUAGACUCCC [U20A G36U G44C] | 0.18 |
| GGCAGAGCUCAACACAGCGAGCGAAAGUGGCUGUGGCUACACUGCC [U20A G22C C23G G40C] | 0.1 |
| GGCAGAGCUCAACACAGCGAGGCAAAGUGGUUGUGGGUAGACUGCC [U20A C31U C37G] | 0.03 |
| GGCAGAGCUCAACACAGCGCGGCAGAGUGGCUGUGGCUAGUCUGCA [U20C A25G A41U C46A] | 0.03 |
| GGCAGAGCUCAACACAGCGAAGCAAAGUGGGUGUGGCUAUACUGCC [U20A G21A C31G G40U] | 0.03 |
| GGCAGAGCUCAACACAGCGAGGCAAAGUAGAUGUACCUAGACUGCC [U20A G29A C31A G35A G36C] | 0.1 |
| GGCAGAGCUCAACACAGCGAGGCAAACUGGCUGUGGCUCGACUGCC [U20A G27C A39C] | 0.1 |
| GGCAGAGCUCAACACAGCGCGGCUAAGUGGCUGUGGCGAGACUGCC [U20C A24U U38G] | 0.06 |
| GGCAGAGCUCAACACAGCGAGGCAAAGUGCCUGCGGCUUGACUGCC [U20A G30C U34C A39U] | 0.04 |
| GGCAGAGCUCAACACAGCGAGGCAAAAUGGCUGUGGCUAGCCUGCC [U20A G27A A41C] | 0.07 |
| GGCAGAGCUCAACACAGCGAGGCAAAGUGGCUGGGGCUAGACUCCC [U20A U34G G44C] | 0.01 |
| GGCAGAGCUCAACACAGCGAGGCAAAGUGGCUGUGGAUAGAAUGCC [U20A C37A C42A] | 0.02 |
| GGCAGAGCUCAACACAGCGAGGCAAAGUGGCUGUGGCUAGAGUCCC [U20A C42G G44C] | 0.05 |
| GGCAGAGCUCAACACAGCGAGGCAAAGUGGCUGAGGUUAGACUGCC [U20A U34A C37U] | 0.02 |
| GGCAGAGCUCAACACAGCGAGGCAAAGUGGCUUUGGCUAGACUGUC [U20A G33U C45U] | 0.05 |
| GGCAGAGCUCAACACAGCGAGACAGAGUGGCUGUGGCUAGACUGCC [U20A G22A A25G] | 0.93 |
| GGCAGAGCUCAACACAGCGAGUCAAAGUGGCUGUGGCUAGACUACC [U20A G22U G44A] | 0.08 |
